Reference: PubChem BioAssay AID504832 (National Center for Advancing Translational Sciences (NCATS), 2011)
The whole screen tested about 310,000 compounds, of which about 18,000 (5.8%) were called active. The inconclusive results got no clear call from the source; some entries with a clear call stand among them for comparison. Calls follow the shape of the dose curve; as a rule, active = well fitted inhibition curve with a large enough effect; inconclusive = small, poorly fitted or top-dose-only effect, or another doubt; inactive = no such curve, though single readings can be large or run the other way. Potencies of inconclusive entries are left out as doubtful fits.
% is scaled to controls: 0 for no effect and ±100 for the full control effect; potency is read from the fitted curve at half-maximal effect; tags tell the direction and shape of the fitted curve.

Experiment: Primary qHTS for delayed death inhibitors of the malarial parasite plastid, 48 hour incubation
Details: P. falciparum luciferase growth in erythrocytes; series mostly up to 28.7 µM; activity change, negative = inhibition: at the top concentration
Outline: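 Here the parasites carry a stable luciferase gene and grow inside erythrocytes in Albumax-based RPMI medium with compound for one erythrocytic cycle. Activity is scored as loss of luminescent signal.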
With `CCOCCCNC(=O)c1c(N)n(-c2ccc3c(c2)OCO3)c2nc3ccccc3nc12` the Potency was inconclusive [inhibitor, single point].
In the case of `O=C(O)c1ccccc1-c1c2cc(Br)c(=O)cc-2oc2[c]([Hg])c(O)c(Br)cc12`, the Potency is reported as inconclusive [inhibitor, partial curve].
With `Cc1ccccc1Nc1c(-c2ccccn2)nc2c(C)cccn12` the Potency was inconclusive [inhibitor, partial curve, poor fit].
With `Cc1cc(NC(=O)CSc2nccn2-c2cccc(C)c2C)no1` the Potency was inconclusive [inhibitor, partial curve].
In the case of `O=C1/C(=C/C=C/c2ccco2)SC(=S)N1NS(=O)(=O)c1ccccc1`, the “activity change, negative = inhibition” value is reported as inactive: 10.3%.
With `O=Cc1ccc(-c2ccc(Cl)cc2Cl)[nH]1` the Potency was inconclusive [inhibitor, full curve].
With `Cc1ccc(S(=O)(=O)N2CCN(C(=O)COC(=O)c3ccccc3Cl)CC2)c(C)c1` the Potency was inconclusive [inhibitor, partial curve].
For `O=C(CCl)N1c2ccccc2OCC1c1ccccc1` (stereo unspecified), the Potency was inconclusive [inhibitor, single point].
In the case of `Cc1ccccc1N1CCN(C(=O)NCc2cccc(Cl)c2)CC1`, the Potency is reported as inconclusive [inhibitor, single point].
With `CC(C)(C)OC(=O)NCCCCCc1nnc(SCc2c(F)cccc2Cl)o1` the Potency was inconclusive [inhibitor, partial curve, poor fit].
In the case of `Cc1noc(C)c1CSCC(=O)Nc1nc2ccc(F)cc2s1`, the Potency is reported as inconclusive [inhibitor, single point].
For `COc1ccc(C)cc1NC(=O)CSc1nnc(CC(=O)Nc2ccccc2F)n1C`, the “activity change, negative = inhibition” value was inactive: -53.1%.
With `CN1C(=O)Cc2cc(S(=O)(=O)N3CCN(c4ccccc4F)CC3)ccc21` the Potency was inconclusive [inhibitor, full curve, poor fit].
In the case of `CC(C)Cn1c(-c2ccco2)nc2c(c(=O)c3ccccc3n2C)c1=O`, the Potency is reported as active: 1.31 µM.
In the case of `O=C(CCNC(=O)N1CCn2c1nc1ccccc12)NCc1ccc(F)cc1`, the “activity change, negative = inhibition” value is reported as inactive: 16.2%.
For `O=C(Nc1cccc(F)c1)c1ccc(Cn2cc([N+](=O)[O-])cn2)o1`, the “activity change, negative = inhibition” value was inactive: -16.8%.
For `O=C(Nc1cccnc1)c1ccc(-c2ccccc2)cc1`, the “activity change, negative = inhibition” value was inactive: 117%.
For `COc1ccccc1CN(C)CC(=O)NC(=O)NC1CCCCC1`, the Potency was inconclusive [inhibitor, partial curve, poor fit].
With `Cc1onc(-c2ccccc2Cl)c1C(=O)Nc1cccc2cccnc12` the Potency was active: 9.28 µM.
In the case of `COc1ccc(CN(Cc2cc3cc4c(cc3[nH]c2=O)OCO4)C(=O)NC2CCCCC2)cc1`, the Potency is reported as active: 4.65 µM.
For `COc1cccc(CNC(=O)c2ccccc2NC(=O)C2=C(C)OCCS2)c1OC`, the Potency was inconclusive [inhibitor, full curve].
With `COC(=O)Cc1[nH]n(-c2ccccc2)c(=O)c1C(C)=Nc1ccccc1` the “activity change, negative = inhibition” value was inactive: 38.8%.
For `O=C(Nc1c[nH]c(=O)[nH]c1=O)c1cc([N+](=O)[O-])cc([N+](=O)[O-])c1`, the “activity change, negative = inhibition” value was inactive: -19.7%.
For `CC(C)Oc1ccc(CCc2n[nH]c(=S)n2-c2ccccc2)cc1`, the Potency was inconclusive [inhibitor, full curve, poor fit].
For `Cc1ccccc1NC(=O)c1ccc(CN(c2ccccc2)S(=O)(=O)c2ccccc2)cc1`, the Potency was inconclusive [inhibitor, single point].
With `Cc1cc(C)cc(N(CC(=O)NC2CCCC2)C(=O)CCC(=O)Nc2cc(C)on2)c1` the “activity change, negative = inhibition” value was inactive: -38.6%.
In the case of `Cc1cc(C)nc(N(C#N)Cc2ccc(Br)cc2)n1`, the Potency is reported as inconclusive [inhibitor, single point].
For `COc1ccc(NC(=O)C2C(c3ccccc3)C2(Cl)Cl)cc1` (stereo unspecified), the “activity change, negative = inhibition” value was inactive: 9.53%.
With `CN(c1cccc(NC(=O)c2ccc(N(C)S(=O)(=O)c3ccccc3)cc2)c1)S(C)(=O)=O` the Potency was inconclusive [inhibitor, single point].
In the case of `Cc1cccc(N2CCN(c3ccc(NC(=O)/C=C(/C(=O)O)c4ccccc4)cc3)CC2)c1`, the Potency is reported as inconclusive [inhibitor, partial curve, poor fit].
In the case of `CC(C)c1cc(NCC2CCCO2)n2c(nc3ccccc32)c1C#N` (stereo unspecified), the Potency is reported as active: 6.57 µM.
For `O=C1C(=O)N(CCCO)C(c2ccc(Br)cc2)/C1=C(\O)c1ccc(Br)cc1` (stereo unspecified), the “activity change, negative = inhibition” value was inactive: 0%.
For `COc1ccc(NC(=O)c2nc3ccccc3s2)cc1`, the “activity change, negative = inhibition” value was inactive: 0%.
With `CC(=O)c1cccc(OCC(O)CN2CCN(S(=O)(=O)c3c(F)cccc3F)CC2)c1` (stereo unspecified) the Potency was inconclusive [inhibitor, single point].
For `COc1ccc(S(=O)(=O)N(C)c2ccc(C(=O)NCc3ccccn3)cc2)cc1`, the Potency was inconclusive [inhibitor, single point].
With `COc1ccccc1Nc1nc(N)nc(CN2CCCCCC2)n1` the Potency was inconclusive [inhibitor, partial curve, poor fit].
For `COc1cc(NC(=O)c2ccc(COCC(F)(F)F)cc2)cc(OC)c1OC`, the Potency was inconclusive [inhibitor, partial curve, poor fit].
For `Cc1ccc(S(=O)(=O)N/N=C\c2cn(CC(N)=O)c3ccccc23)cc1C`, the “activity change, negative = inhibition” value was inactive: 15.3%.
With `FC(F)Oc1ccc(-c2c[n+]3c(n2-c2ccccc2)CCCCC3)cc1` the Potency was inconclusive [inhibitor, partial curve].
With `CCOC(=O)C(NC(=O)CCl)(Nc1sc(C)c(CC)c1C#N)C(F)(F)F` (stereo unspecified) the Potency was inconclusive [inhibitor, partial curve].
For `O=C1c2ccccc2C(=O)N1CCC#Cc1ccc2cc(C3(O)CCCCC3)oc(=O)c2c1`, the Potency was inconclusive [inhibitor, single point].
For `O=C(Nc1ccc(C(F)(F)F)cc1)OC1CN2CCC1CC2` (stereo unspecified), the Potency was inconclusive [inhibitor, partial curve].
For `CCN(CC)C(=O)n1c(Cc2ccccc2)nc2ccccc21`, the “activity change, negative = inhibition” value was inactive: -19%.
In the case of `COc1ccc(C2c3ccsc3CCN2C(=O)C(C)(C)C)cc1` (stereo unspecified), the Potency is reported as inconclusive [inhibitor, partial curve, poor fit].
For `COc1ccc(/C=N/NC(=O)c2cccc(OC(F)(F)C(F)F)c2)cc1O`, the “activity change, negative = inhibition” value was inactive: 21.1%.
In the case of `COC(=O)CCC(=O)OC1(C)C(=O)C=C2C=C3CCCN3C=C2C1=O` (stereo unspecified), the “activity change, negative = inhibition” value is reported as inactive: 54.2%.
With `O=c1oc(-c2cccs2)nc2scc(-c3cccs3)c12` the “activity change, negative = inhibition” value was inactive: 9.88%.
With `CCOC(=O)c1cc(-c2ccccc2)sc1NC(=O)C(C)C` the Potency was inconclusive [inhibitor, full curve].
For `Cc1ccc(S(=O)(=O)/N=S(/C)c2ccccc2)cc1` (stereo unspecified), the “activity change, negative = inhibition” value was inactive: 0.375%.
For `CC1=CC(c2ccc(Cl)cc2)n2nc(NC(=O)c3ccccc3)nc2N1` (stereo unspecified), the Potency was inconclusive [inhibitor, single point].
With `CCOC(=O)Cc1[nH]nc2c1C(Cc1ccccc1)C(C#N)=C(N)O2` (stereo unspecified) the Potency was inconclusive [inhibitor, partial curve, poor fit].
With `CCOC(=O)c1c(NC(=O)Cc2cccs2)sc2c1CCCC2` the “activity change, negative = inhibition” value was inactive: -17.7%.
With `COc1ccc(C(=O)NC(=S)Nc2ccc(CN3CCCCC3)cc2)cc1Cl` the Potency was inconclusive [inhibitor, single point].
In the case of `Cc1cc(C)nc(N/N=C/c2cc(C)n(CC(F)(F)F)c2C)n1`, the Potency is reported as inconclusive [inhibitor, single point].
In the case of `CCOC(=O)Cn1cc(C#N)c2cccc(CC)c21`, the Potency is reported as inconclusive [inhibitor, partial curve, poor fit].
In the case of `NCCNc1ccc([N+](=O)[O-])c(Sc2nc3ccccc3[nH]2)c1`, the Potency is reported as inconclusive [inhibitor, partial curve, poor fit].
With `CC1CCN(S(=O)(=O)c2ccc(NC(=O)CCNC(=O)c3ccc(Cl)cc3)cc2)CC1` the “activity change, negative = inhibition” value was inactive: 9.03%.
With `Cc1ccc(C)c(CSc2ccc3nnc(-c4ccccn4)n3n2)c1` the Potency was active: 13.1 µM.
In the case of `CN(C)c1cc[n+](CC(O)C[n+]2ccc(N(C)C)cc2)cc1`, the Potency is reported as active: 9.28 µM.
With `Cc1ccc2c(c1)cc(CN(Cc1ccco1)C(=O)COc1ccccc1)c1nnnn12` the Potency was inconclusive [inhibitor, partial curve].
With `O=C(O)COCC(=O)Nc1ccc(-n2cnnn2)cc1` the “activity change, negative = inhibition” value was inactive: 18.5%.
With `CCCOc1ccccc1NP(=O)(Oc1ccccc1)Oc1ccccc1` the Potency was inconclusive [inhibitor, single point].
In the case of `CC(=O)NC(=S)NNC(=O)c1ccc(Br)cc1`, the Potency is reported as inconclusive [inhibitor, single point].
In the case of `Cc1cccc(NC(=S)NCCc2ccc(F)cc2)c1C`, the Potency is reported as inconclusive [inhibitor, partial curve].
For `CCN(CCNC(=O)C1CCN(S(=O)(=O)c2cccc3cccnc23)CC1)c1ccccc1`, the Potency was active: 6.57 µM.
In the case of `COc1ccc(CNCCNC(=O)c2nonc2N)cc1OC`, the “activity change, negative = inhibition” value is reported as inactive: 9.68%.
For `CCN1CCN(c2cc(N3CCc4ccccc4C3)c(F)cc2[N+](=O)[O-])CC1`, the Potency was inconclusive [inhibitor, single point].
For `O=C(CSCc1c(F)cccc1Cl)NCc1ccco1`, the Potency was inconclusive [inhibitor, single point].
With `COc1cccc(C(CC(=O)Nc2cccc3ccccc23)NC(=O)c2ccccc2)c1` (stereo unspecified) the Potency was inconclusive [inhibitor, partial curve].
With `CCOc1cccc2sc(N(CCN(C)C)C(=O)/C=C/c3cccs3)nc12` the Potency was inconclusive [inhibitor, single point].
In the case of `CC(=O)N1CCN(C(=O)c2ccc(S(=O)(=O)Nc3ccccc3F)cc2)CC1`, the “activity change, negative = inhibition” value is reported as inactive: 0.68%.
